According to publication PMC6274866, “The 2β Splice Variation Alters the Structure and Function of the Stromal Interaction Molecule Coiled-Coil Domains” (International Journal of Molecular Sciences, 2018):

B1: human STIM1-OASF (Orai-activating STIM fragment of stromal interaction molecule-1, […]) (domain or fragment)
chain: not shown
notes: Expressed from pET-28a; A few vector residues probably remain after thrombin cleavage (surmise); source: E. coli BL21 (DE3), purified under denaturing conditions (guanidine-HCl, nickel-NTA), renatured, thrombin-cleaved, SEC
B2: human STIM2-OASF (Orai-activating STIM fragment of stromal interaction molecule-2, […]) (domain or fragment)
chain: not shown
notes: the methods print […]; Cloned into pET-28a; C-terminal limit printed as 496 in the results and 495 in the methods; 496 fits the […] range printed for the 2β form (8 residues longer); A few vector residues probably remain after thrombin cleavage (surmise); source: E. coli BL21 (DE3), purified under denaturing conditions (guanidine-HCl, nickel-NTA), renatured, thrombin-cleaved, SEC

Experiments:
[1] = target: the molecule itself; assay: SEC-MALS; 1 mg/mL protein injected on Superdex 200 Increase 10/300 GL at 10 °C; 20 mM TRIS, 300 mM NaCl, 1 mM DTT, pH 8.0; without CaCl2; stoichiometric ratio = MALS molecular weight / theoretical monomer mass
[2] = target: the molecule itself; assay: SEC-MALS; 1 mg/mL protein injected on Superdex 200 Increase 10/300 GL at 10 °C; 20 mM TRIS, 300 mM NaCl, 1 mM DTT, pH 8.0; with 25 mM CaCl2; stoichiometric ratio = MALS molecular weight / theoretical monomer mass

Protein | stoichiometry N [1] | stoichiometry N [2]
B1 | 2.18 | 2
B2 | 1.98 | 1.99
